# Measured values taken from ChEMBL document CHEMBL5606460, “ASAP - DENV-2 NS2B-NS3 protease fluorescence single point” (2024).
# The campaign covered roughly 2,000 compounds. About 110 (5.5%) showed an effect of 50% or more. This is one part of the list.
# Biological target: Genome polyprotein (dengue virus type 2) (UniProt P29990)
# [1] = Thailand/16681/1984, Concentration 25.0 uM, Number of replicates 1.0
smiles,measurement,setting,value
Cc1cc(CO)c2cccc(CC(=O)N(c3ncccn3)S(=O)(=O)c3ccc(N)cc3)c2n1,inhibition,"Thailand/16681/1984, Concentration 49.95 uM, Number of replicates 2.0, Standard deviation 0.013152514133703636 %",99.6%
same,inhibition,"Thailand/16681/1984, Concentration 99.9 uM, Number of replicates 2.0, Standard deviation 0.02076996694616858 %",99.4%
Cc1cc(CO)c2cccc(Cc3ccccc3C(=O)N3CC[C@@H](CO)C3)c2n1,inhibition,"Thailand/16681/1984, Concentration 49.95 uM, Number of replicates 2.0, Standard deviation 0.1537915321395842 %",-0.863%
same,inhibition,"Thailand/16681/1984, Concentration 99.9 uM, Number of replicates 2.0, Standard deviation 0.5490500301245094 %",3.93%
Cc1cc(CO)c2cccc(C[C@H](NC(=O)c3cnn(Cc4c(C)noc4C)c3)C(=O)O)c2n1,inhibition,"Thailand/16681/1984, Concentration 49.95 uM, Number of replicates 2.0, Standard deviation 1.1924398800818634 %",6.27%
same,inhibition,"Thailand/16681/1984, Concentration 99.9 uM, Number of replicates 2.0, Standard deviation 0.4114422556103808 %",14.3%
CC(=O)N[C@@H](Cc1cnc[nH]1)C(=O)Nc1cccc2cccnc12,inhibition,"Thailand/16681/1984, Concentration 49.95 uM, Number of replicates 2.0, Standard deviation 0.10364955290671912 %",-6.45%
same,inhibition,"Thailand/16681/1984, Concentration 99.9 uM, Number of replicates 2.0, Standard deviation 0.355368739652335 %",29.6%
C#CCn1ccnc(N2CC[C@H](CO)C2)c1=O,inhibition,"Thailand/16681/1984, Concentration 49.5 uM, Number of replicates 2.0, Standard deviation 2.0763887684739366 %",7.96%
same,inhibition,"Thailand/16681/1984, Concentration 99.01 uM, Number of replicates 2.0, Standard deviation 1.566880911622348 %",17.7%
same,inhibition,"Thailand/16681/1984, Concentration 198.0 uM, Number of replicates 2.0, Standard deviation 2.295023353488077 %",33.4%
O=Cc1ccc(N2CCC(C(=O)Nc3ccncc3I)CC2)cc1,inhibition,[1],12.8%
O=C(Nc1ccc(Cl)c2cccnc12)c1ccncc1,inhibition,"Thailand/16681/1984, Concentration 49.95 uM, Number of replicates 2.0, Standard deviation 4.407566362964235 %",-8.51%
CC(=O)Nc1ccc(C(=O)N[C@@H](Cc2cccc3c(CO)cc(C)nc23)C(=O)O)cn1,inhibition,"Thailand/16681/1984, Concentration 49.95 uM, Number of replicates 2.0, Standard deviation 1.0579951422547804 %",6.92%
same,inhibition,"Thailand/16681/1984, Concentration 99.9 uM, Number of replicates 2.0, Standard deviation 0.5756140086291676 %",18.2%
O=Cc1ccc(N2CCC(C(=O)N3CCN(CC(F)(F)F)CC3)CC2)cc1,inhibition,[1],13.1%
O=Cc1ccc(N2CCC(C(=O)NCc3ccc(S(F)(F)(F)(F)F)cc3)CC2)cc1,inhibition,[1],7.87%
O=C1[C@@H]2CCCN2[C@H](c2ccc([N+](=O)[O-])cc2)N1c1ccc([N+](=O)[O-])cc1,inhibition,"Thailand/16681/1984, Concentration 49.5 uM, Number of replicates 2.0, Standard deviation 0.9169689211516303 %",1.38%
same,inhibition,"Thailand/16681/1984, Concentration 99.01 uM, Number of replicates 2.0, Standard deviation 0.1237768647067936 %",5.28%
same,inhibition,"Thailand/16681/1984, Concentration 198.0 uM, Number of replicates 2.0, Standard deviation 0.26470581088358064 %",12.8%
O=C(c1csc([C@H]2CCCNC2)n1)N1CC[C@H](c2cccnc2)C1,inhibition,"Thailand/16681/1984, Concentration 49.5 uM, Number of replicates 2.0, Standard deviation 1.7251582592894925 %",-0.499%
same,inhibition,"Thailand/16681/1984, Concentration 99.01 uM, Number of replicates 2.0, Standard deviation 2.248532513594862 %",1.01%
same,inhibition,"Thailand/16681/1984, Concentration 198.0 uM, Number of replicates 2.0, Standard deviation 1.6393165928155962 %",2.41%
CN1CCN(C2CCN(C(=O)C3CCN(c4ccc(C=O)cc4)CC3)CC2)CC1,inhibition,[1],10.2%
O=Cc1ccc(N2CCC(C(=O)NCCn3ncc4ccccc4c3=O)CC2)cc1,inhibition,[1],15.1%
CN(C)S(=O)(=O)[C@H]1C[C@H](NC(=O)c2cccc3c2NC(=O)[C@]2(CCCN2)C3)C1,inhibition,"Thailand/16681/1984, Concentration 49.5 uM, Number of replicates 2.0, Standard deviation 2.4228708872645983 %",-1.16%
same,inhibition,"Thailand/16681/1984, Concentration 99.01 uM, Number of replicates 2.0, Standard deviation 1.9959961416034686 %",-0.631%
same,inhibition,"Thailand/16681/1984, Concentration 198.0 uM, Number of replicates 2.0, Standard deviation 1.8190401536132663 %",-0.336%
CC(C)(C)[C@@H](NC(=O)OCc1ccccc1)C(=O)Nc1cccc(CN)c1,inhibition,"Thailand/16681/1984, Concentration 49.5 uM, Number of replicates 2.0, Standard deviation 1.83793572376561 %",-6.76%
same,inhibition,"Thailand/16681/1984, Concentration 99.01 uM, Number of replicates 2.0, Standard deviation 1.8206757463634287 %",-7.66%
same,inhibition,"Thailand/16681/1984, Concentration 198.0 uM, Number of replicates 2.0, Standard deviation 1.2664180516369132 %",-8.05%
COc1ccc(S(=O)(=O)N2CCC(C(=O)Nc3nccs3)CC2)cc1,inhibition,"Thailand/16681/1984, Concentration 49.5 uM, Number of replicates 2.0, Standard deviation 0.17896011278374374 %",-0.799%
same,inhibition,"Thailand/16681/1984, Concentration 99.01 uM, Number of replicates 2.0, Standard deviation 0.11050992187938288 %",-0.402%
same,inhibition,"Thailand/16681/1984, Concentration 198.0 uM, Number of replicates 2.0, Standard deviation 1.1191191361433108 %",-0.384%
O=Cc1ccc(N2CCC(C(=O)NCc3ccc(-c4cccs4)cc3)CC2)cc1,inhibition,[1],10.9%
CNc1ccccc1C(=O)Nc1cccc2c(CO)cc(C)nc12,inhibition,"Thailand/16681/1984, Concentration 49.95 uM, Number of replicates 2.0, Standard deviation 1.7606224720878931 %",-0.213%
same,inhibition,"Thailand/16681/1984, Concentration 99.9 uM, Number of replicates 2.0, Standard deviation 1.1796035516056886 %",2.15%
CNS(=O)(=O)c1ccc(Oc2ccccc2Cl)cc1,inhibition,"Thailand/16681/1984, Concentration 49.5 uM, Number of replicates 2.0, Standard deviation 2.6119045762628477 %",-1.72%
same,inhibition,"Thailand/16681/1984, Concentration 99.01 uM, Number of replicates 2.0, Standard deviation 1.5233102161282106 %",-0.429%
same,inhibition,"Thailand/16681/1984, Concentration 198.0 uM, Number of replicates 2.0, Standard deviation 1.4243001461587221 %",1.7%
COc1cc(CCNC(=O)C2CCN(c3ccc(C=O)cc3)CC2)cc(OC)c1O,inhibition,[1],15.1%
Cc1cc(CO)c2cccc(NC(=O)c3nc(C4CCNCC4)oc3C)c2n1,inhibition,"Thailand/16681/1984, Concentration 49.95 uM, Number of replicates 2.0, Standard deviation 36.17788639576005 %",67.7%
same,inhibition,"Thailand/16681/1984, Concentration 99.9 uM, Number of replicates 2.0, Standard deviation 0.36888000776056334 %",98.7%
O=Cc1ccc(N2CCC(C(=O)N3CCN(c4cnccn4)CC3)CC2)cc1,inhibition,[1],10.1%
